Data on 40 sequences can be found in the supplement of paper PMC10338343.

± gives the standard deviation. The list shows a part of the results, in another mix than the full data.

The first assay relates to MIWI (PIWIL1) piRISC loaded with L1MC piRNA (30 nt). Kind of assay: pre-steady-state target cleavage rate (min^-1); MIWI and MILI are mouse PIWI proteins and EfPiwi is from a freshwater sponge; tags in brackets are library labels; higher = faster piRNA-guided slicing of the target. The settings on record: guide: L1MC piRNA 5'p-UAACUAAAUACUAUGCAAGCUGUAGGUCCU; auxiliary factor: 500 nM mouse GTSF1. The essentials: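 Active affinity-purified piRISC (1 nM) loaded with one synthetic guide was mixed with a transcribed, DNA-blocked target RNA library (0.1 nM), with or without 500 nM GTSF1 partner protein, in HEPES–potassium acetate buffer at 33 °C for 0–8 or 0–960 min. Uncleaved targets were sequenced, normalised to depth and to weakly complementary targets, and pooled across three trials, with k3 capped at 0.0001 min^-1. The pre-steady-state cleavage rate was determined with a burst-and-steady-state fit.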
On to UCCACCUACAGCUUGCAUAGUAUUUUCAUA, for which the “pre-steady-state target cleavage rate” value was 0.282 ± 0.039. On the same count and under the same terms, the value for AGGACCUACAGCUUGCAUAGUAUUUAGAUUA was 0.376 ± 0.034; that for UCCUGGAACAGCUUUGCAUAGUAUUUAGUUA was 1.04 ± 0.051; that for UGCGACCUACAGCUUGCAUAGUAUUUAGUUA was 1.41 ± 0.057. On the same count and under the same terms, the value for UCCUGCUACAGCGUUGCAUAGUAUUUAGUUA was 1.09 ± 0.067; that for UGGAGGUACAGCUUGCAUAGUAUUUAGAAA was 0.369 ± 0.052. On to UGGACCUACAGGUUGCAUAGUAUUUACAAA, for which the “pre-steady-state target cleavage rate” value is 0.165 ± 0.028. With UCCACCUACACGCUUGCAUAGUAUUUAGUUA, the “pre-steady-state target cleavage rate” value was 0.853 ± 0.041.

On to UCCUCCUACUGCUUGCAUAGUAUUUACUUA, for which the “pre-steady-state target cleavage rate” value stood at 0.203 ± 0.019.

AGCACCUACAGCUUGCAUAGUAUUUUGUUA: the “pre-steady-state target cleavage rate” value was 1.3 ± 0.2. As to UCCUGGUACAGCUUGAAUAGUAUUUAGUUA, the “pre-steady-state target cleavage rate” value amounted to 0.432 ± 0.087. With UCCAGCUACAGCUUGCAUUGUAUUUAGUUA, the “pre-steady-state target cleavage rate” value was determined as 0.899 ± 0.042. The same measure, in the same setting: the value for UCCUGCUACAGCUUGCAUAGUUUAUAGUUA was 0.122 ± 0.023; that for UCCUGGAUCAGCUUGCAUAGUAUUUAGUCA was 1.05 ± 0.068; that for UCCUGGAUGUUCUUGCAUAGUAUUUAGUUA was 0.137 ± 0.014. Same read-out and setting: under AGGACCUACAGCUAGCAUAGUUUUUAGUUA stands 0.354 ± 0.024.

The assay is the same for the next values; noted with them: guide: L1MC piRNA 5'p-UAACUAAAUACUAUGCAAGCUGUAGGUCCU; auxiliary factor: none (no GTSF1).
With UCCUGGAACAGCUUGUCAUAGUAUUUAGUUA, the “pre-steady-state target cleavage rate” value came to 0.00586 ± 0.0033. The same measure, in the same setting: under UCCUCCUACAGCUUGCAAAGUAUAUAGUUA stands 0.00986 ± 0.0025; under UGGACCUUCACCUUGCAUAGUAUUUAGUUA, 0.0375 ± 0.0069; under UCCUGGAUCAGCUUGCUUAGUAAUUAGUUA, 0.0111 ± 0.004. On the same count and under the same terms, under AGGACCUACAGCUUGGAUAGUUUUUAGUUA stands 0.0281 ± 0.0067; under UCCUGGAUGAGCAUGCAAAGUAUUUAGUUA, 0.00587 ± 0.0031; under UCCUCCUACAGCUUGCAGAGUAUUUAGUUA, 0.0211 ± 0.0046. UCCUGCUACAGCUUGCAAAGUAUUUACUUA: the “pre-steady-state target cleavage rate” value is 0.0217 ± 0.0044. On to AGGACCUACAGCUUGCUUUGUAUUUAGUUA, for which the “pre-steady-state target cleavage rate” value came out at 0.00824 ± 0.0023.

As to UCCUCCUACAGCUUGCAUGGUAUUUAGUUA, the “pre-steady-state target cleavage rate” value was 0.0582 ± 0.011. Consider UCCUGCUACAGCUUACAUAGUAUUUAGUUA, for which the “pre-steady-state target cleavage rate” value came out at 0.0211 ± 0.0026. As to UCCUGGAACUCGUUGCAUAGUAUUUAGUUA, the “pre-steady-state target cleavage rate” value is 0.00402 ± 0.0021. Consider UGCACCUACAGCUAGCAUAGUAUUUAGUUA, for which the “pre-steady-state target cleavage rate” value was found to be 0.0194 ± 0.0043. For the sequence UCGACCUACAGCUUGCAAAGAAUUUAGUUA, the “pre-steady-state target cleavage rate” value worked out at 0.00797 ± 0.0031. On the same count and under the same terms, the value for AGGACCUACAGCUUGCAUAGUAGUUAGUUA was 0.0316 ± 0.0066; that for UCCUCCUACAGCUUGGAUAGUAUUUACUUA was 0.0159 ± 0.0024; that for AGGACCUAGACCUUGCAUAGUAUUUAGUUA was 0.0632 ± 0.013.

With UCCUGCUACAGCUUGCAAAGUAUUUAGAAA, the “pre-steady-state target cleavage rate” value came to 0.00338 ± 0.0032. For UCCUGGUACAGCUUGCAUAUUAUUUAGUUA, the “pre-steady-state target cleavage rate” value is 0.0572 ± 0.013. On the same count and under the same terms, the value for UCCUGGAACAGCUUGCAAAGUAAUUAGUUA was 0.0139 ± 0.0055; that for UCCUGGAUCAGCUUGGCAUAGUAUUUAGUUA was 0.0104 ± 0.0039. Same read-out and setting: under UCCAGCUACAGCUUGCAUACUAUUUAGUUA stands 0.0316 ± 0.0051; under UGGACCUACAGCUUGCAUAGUAUUUGUUA, 0.00385 ± 0.0021; under UCCUGGAUCAGGUUGCAUAGAAUUUAGUUA, 0.00868 ± 0.0035. As to UCCACCUACAGCUUGCAUAGUAUUUUCAUA, the “pre-steady-state target cleavage rate” value stood at 0.00281 ± 0.0026. Still for that read-out and setting: under AGGACCUACAGCUUGCAUAGUAUUUAGAUUA stands 0.0531 ± 0.0095; under UCCUGGAACAGCUUUGCAUAGUAUUUAGUUA, 0.0221 ± 0.0054. Still for that read-out and setting: the value for UGCGACCUACAGCUUGCAUAGUAUUUAGUUA was 0.0975 ± 0.02; that for UCCUGCUACAGCGUUGCAUAGUAUUUAGUUA was 0.0216 ± 0.0041; that for UGGAGGUACAGCUUGCAUAGUAUUUAGAAA was 0.0114 ± 0.0031. Same read-out and setting: the value for UGGACCUACAGGUUGCAUAGUAUUUACAAA was 0.00296 ± 0.0022.

For UCCACCUACACGCUUGCAUAGUAUUUAGUUA, the “pre-steady-state target cleavage rate” value was found to be 0.0539 ± 0.01. With UCCUCCUACUGCUUGCAUAGUAUUUACUUA, the “pre-steady-state target cleavage rate” value was found to be 0.0222 ± 0.0026. As for AGCACCUACAGCUUGCAUAGUAUUUUGUUA, the “pre-steady-state target cleavage rate” value worked out at 0.624 ± 0.22. Turning to UCCUGGUACAGCUUGAAUAGUAUUUAGUUA, the “pre-steady-state target cleavage rate” value was 0.0124 ± 0.0031. In the case of UCCAGCUACAGCUUGCAUUGUAUUUAGUUA, the “pre-steady-state target cleavage rate” value worked out at 0.0296 ± 0.0053. UCCUGCUACAGCUUGCAUAGUUUAUAGUUA: the “pre-steady-state target cleavage rate” value amounted to 0.00989 ± 0.0026. Regarding UCCUGGAUCAGCUUGCAUAGUAUUUAGUCA, the “pre-steady-state target cleavage rate” value amounted to 0.0305 ± 0.0092. The same measure, in the same setting: under UCCUGGAUGUUCUUGCAUAGUAUUUAGUUA stands 0.0206 ± 0.0051; under AGGACCUACAGCUAGCAUAGUUUUUAGUUA, 0.0267 ± 0.0067.
